Test results reported in PubChem BioAssay AID1508624 (National Center for Advancing Translational Sciences (NCATS), 2021).
The whole screen tested about 48,000 compounds, of which about 120 (0.25%) were called active. About 4% were inconclusive and are not listed. Calls come from the whole dose curve; as a rule, active = well fitted activation curve with a large enough effect; inconclusive = small, poorly fitted or top-dose-only effect, or another doubt; inactive = no such curve, though single readings can be large or run the other way. The list shows a part of the results.

Test: Primary qHTS for Identification of Small Molecule Activators of Huntingtin-Antisense Promoter Activity; note: nearly all actives have a fitted effect of over 55% in size
Conditions: HEK293 HTT-AS promoter firefly luciferase reporter, 24 h; series mostly up to 57.5 µM; activity change, positive = activation: at the top concentration
Summary of the method: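 HEK293 cells carrying firefly luciferase reporters were seeded at 2,500 per well in Opti-MEM and cultured for 24 h. They were then treated with compounds at up to 57.5 uM final for 24 h at 37 degrees C before Dual-Glo luminescence readout.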

Activity change, positive = activation, inactive:
COc1cccc(CNC(=O)c2ccc3c(c2)nc2n3CCOC2)c1 -9.73%
Cc1ccc(-c2nnn3c2nc(NCC(C)c2ccccc2)c2ccccc23)cc1 (stereo not drawn) 16%
Cc1oc(=O)oc1CN1CCN(c2cc3c(cc2F)c(=O)c(C(=O)O)c2n3C(C)S2)CC1 (stereo not drawn)
CCOc1ccc(CNC(=O)c2ccc(CS(=O)Cc3ccc(Cl)cc3)o2)cc1 (stereo not drawn) -11.1%
CCN(Cc1ccccc1)C(=O)CN1C(=O)COc2ccc(S(=O)(=O)NC3CCCC3)cc21 -20.4%
COc1ccccc1NC(=O)CN1C(=O)C2(SCC(=O)N2c2ccc(F)c(F)c2)c2ccccc21 (stereo not drawn) -28.1%
Cc1nnc(NC(=O)c2nc(SCc3ccccc3F)ncc2Cl)s1 -10.8%
O=C(NCc1ccccc1)C(=O)Nc1ccc2nc3n(c(=O)c2c1)CCCCC3 -13.7%
COc1cc(NC(=O)CSc2nc(-c3ccco3)cc(C(F)(F)F)n2)cc(OC)c1OC -74.6%
COc1nc(C)cnc1NS(=O)(=O)c1cccnc1-c1ccc(-c2nnco2)cc1 5.08%
CCc1cc(C(=O)NCc2ccccc2)no1 4.58% [at 11.5 µM, percent change from vehicle, -100% = no light]
Cc1ccc(CN2COc3ccc4c(-c5ccccc5)cc(=O)oc4c3C2)cc1 -16.5%
Cc1cc(C)nc(-n2nc(C)c3c2N(C)C(=O)CC3c2ccc(Cl)cc2)n1 (stereo not drawn) -11.8%
Cc1c(C(=O)Nc2cccc(Cl)c2)oc2ccc(S(=O)(=O)N3CCCCCC3)cc12 -8.65%
Cc1cc(-c2ccc(S(=O)(=O)Nc3ccccc3F)s2)on1 -33.9%
CC(NC(=O)Cc1ccc(NC(=O)N2CCSc3ncccc32)cc1)c1ccccc1 (stereo not drawn) -20.3%
CCCOc1ccc(C(=O)Nc2ccc(NC(=O)c3ccccc3)c(Br)c2)cc1 -27.5%
CCc1cccc(NC(=O)Cn2nc(-c3cc(C)ccc3C)ccc2=O)c1 -24.7%
Cc1nnc(NCc2ccccc2)c2c1nnn2Cc1ccc(F)cc1 -22.7%
N=C(N=C(N)N)N1CCOCC1
Cc1ccc(CN2C(=O)C3(c4ccccc42)N(c2cccc(C(F)(F)F)c2)C(=O)CS3(=O)=O)cc1 (stereo not drawn) -26.4%
O=c1cc(CSc2n[nH]c(-c3ccccc3)n2)[nH]c2ccccc12 -38.1%
COc1ccccc1NC(=O)CSc1oc(-c2cccs2)nc1S(=O)(=O)c1ccccc1 -15.6%
COc1cc(NC(=O)c2cc3c(=O)n(Cc4cccs4)ccc3nc2C)cc(OC)c1OC -25.6%
CC(Oc1ccccc1Cl)C(=O)N1CCN(CCc2ccccn2)CC1 (stereo not drawn) 4.98% [at 11.5 µM, percent change from vehicle, -100% = no light]
O=C(CN1C(=O)COc2ccc(S(=O)(=O)N3CCOCC3)cc21)N1CCN(c2ccc(F)cc2)CC1 -4.66%
CC(Sc1nc(=O)cc(N)n1CCc1ccccc1)C(=O)Nc1ccccc1C#N (stereo not drawn) 13.1%
COc1ccc(OC)c(NC(=O)CN2C(=O)CCc3cc(S(=O)(=O)N4CCCCC4)ccc32)c1 -11.3%
O=C(NC1CCCCC1)c1ccc2c(c1)N(Cc1ccc(Cl)cc1)C(=O)c1ccccc1S2(=O)=O -15.9%
CCc1ccc2oc(C(=O)Nc3sc4c(c3C(=O)NC)CCCC4)cc(=O)c2c1 -2.96%
O=C(Nc1ccc(Cl)cc1F)c1cc(S(=O)(=O)NCc2ccc3c(c2)OCO3)ccc1F -11.8%
CCOc1ccc(C(=O)Nc2cccc(OCc3cc(=O)n4cc(C)sc4n3)c2)cc1 13.3%
CCCCOC(=O)c1cccc(NC(=O)c2cc3ccccc3o2)c1 -52.4%
CN(C)CCn1c2c(c(SCC(=O)Nc3ccc(F)cc3F)nc1=O)CCC2 -4.71%
CCCCn1cc(S(=O)(=O)c2cccc(C)c2)c(=O)c2cc(F)c(N3CCOCC3)cc21 -12.6%
Cc1ccc(C)c(Cn2nc(-c3cc(C)ccc3C)ccc2=O)c1 -31.1%
CCOC(=O)c1c(S(=O)(=O)N2CCCC(C(=O)N3CCN(c4ccccc4)CC3)C2)c(C)n(C)c1C (stereo not drawn) 0%
Cc1ccccc1OC(=O)CSc1nnc(-c2cccs2)o1 -0.554%
COc1cccc(N2CC(NC(=O)c3ccc(S(=O)(=O)N4CCCCC4)cc3)CC2=O)c1 (stereo not drawn) -15.1%
CCOc1ccc(S(=O)(=O)NCC(c2ccco2)S(=O)(=O)c2ccc(F)cc2)cc1 (stereo not drawn) -20.6%
COc1ccc(-c2nc3ccccc3o2)cc1NC(=O)COc1ccc(C(C)(C)C)cc1 21%
CCOC(=O)c1cc2c(=O)n3ccccc3nc2n(CC2CCCO2)c1=NC(=O)c1ccc(C)cc1 (stereo not drawn) 9.85%
O=[N+]([O-])c1ccc(C(c2sc3nc(-c4ccco4)nn3c2O)N2CCN(c3cccc(Cl)c3)CC2)cc1 (stereo not drawn) -10.5%
CCC(=O)Nc1ccc2nc(SCCOc3ccc(C)cc3)sc2c1 -15.5%
CCS(=O)(=O)c1ncc(N(Cc2ccc(F)cc2)Cc2ccco2)c(C(=O)Nc2cc(C)ccc2C)n1 -22.7%
CCOC(=O)C1CCN(C(=O)CN2c3ccc(CC)cc3-c3ccccc3S2(=O)=O)CC1 1.9%
CCCn1c(NCc2ccc(N(CC)CC)cc2)nc2ccccc21 -22.5%
CCCN(CCC)C(=O)Cn1c(=O)n(-c2ccc(OC)cc2)c(=O)c2ccc(C(=O)NCc3ccc(C)cc3)cc21 -23.5%
CN1CCN(c2nc3c(S(=O)(=O)c4ccccc4)nnn3c3ccsc23)CC1 -4.65%
Cc1ccc(-n2c(SCC(=O)Nc3cccc(C)c3)nc3c(oc4ccccc43)c2=O)cc1 -13%
CCOC(=O)C1CCCN(C(=O)c2ccc(-n3ccc4ccccc43)s2)C1 (stereo not drawn) -25%
Cc1cc(OI)c(C(C)C)cc1-c1cc(C(C)C)c(OI)cc1C -3.64%
CC(=O)N1c2c(cc(Br)cc2S(=O)(=O)N2CCN(c3cccc(Cl)c3)CC2)CC1C (stereo not drawn) -22.9%
COc1cccc(N2CCN(C(=O)c3cnn(-c4ccc(C)cc4C)c3C3CCN(C(=O)OC(C)(C)C)CC3)CC2)c1 -16.7%
CC(=O)c1cccc(NS(=O)(=O)c2ccc3c(c2)NC(=O)CC(=O)N3)c1 -5.78%
CCN(Cc1ccccc1)C(=O)c1cc2c(s1)-c1c(C)cccc1OC2 -6.17%
Cc1ccc(Cl)cc1NC(=O)Cn1c(=O)n(Cc2ccc(C(=O)NCc3ccc4c(c3)OCO4)cc2)c(=O)c2ccccc21 -10%
CCN1CCN(c2c(S(=O)(=O)c3ccc(C)c(C)c3)cnc3ccc(F)cc23)CC1 -1.96%
Cc1nn(CC(=O)Nc2ccccc2F)c(=O)c2c(C)n(-c3ccc(Cl)cc3)nc12 -36.7%
O=c1c2cnn(-c3ccc(Cl)cc3)c2ncn1Cc1cccc(C(F)(F)F)c1 -13.4%
COc1ccc(NC(=O)CSc2cc(-c3ccccc3)nc(C)n2)cc1 -24.5%
CCOc1ccc(-c2csc(/C(C#N)=C/c3ccc(Br)cc3)n2)cc1 -12.1%
Cc1oc2c(c(C)cc3oc(=O)c(CC(=O)NCc4ccccc4)c(C)c32)c1C -11.3%
CCOC(=O)c1cc(-c2ccccc2)n(-c2cccc(C(=O)Nc3cccc(C(C)=O)c3)c2)c1C -25.9%
COc1cccc(N2CCN(C(=O)CN3C(=O)COc4ccc(S(=O)(=O)N5CCC(C)CC5)cc43)CC2)c1 -11.7%
COc1ccc(C)cc1-n1nnc(C(=O)Nc2cccc(SC)c2)c1C 19.9%
Cc1c(Cl)cccc1NC(=O)Cn1cc2c(n1)CCCC2 -17.9%
COc1ccc(C(=O)NCC(c2cccnc2)N2CCc3ccccc32)cc1OC (stereo not drawn) -19.3%
Cc1cccc(CNC(=O)c2ccc(NC(=O)N3CCSc4ccccc43)cc2)c1 -14.6%
Cc1cccc(Oc2ccc3c(c2)Oc2ccccc2NC3=O)c1 -25.7%
Cc1ccc(NC(=O)Cn2cc(S(=O)(=O)N3CCC(C)CC3)c3ccccc3c2=O)c(Br)c1 -19.1%
CCCCN(CCCNC(=O)c1c(C)oc2nc[nH]c(=O)c12)Cc1ccccc1 -26.8%
COc1ccc(CNC(=O)c2cnn(-c3ccc(F)cc3)c2-n2cccc2)cc1 -9.69%
CNC(=O)c1c(NC(=O)c2ccc(S(=O)(=O)N3CCCCC3C)cc2)sc2c1CCC2 (stereo not drawn) -14.5%
Cc1ccc(Nc2c(-c3cccnc3)nc3ccc(Br)cn23)cc1 1.71%
COc1ccc(-c2nnc(SCC(=O)N(C)Cc3ccccc3)o2)cc1OC -11%
COc1ccc(CN2C(=O)c3oc4ccccc4c(=O)c3C2c2ccc(O)c(OC)c2)cc1 (stereo not drawn) -5.42%
CCOc1ccc(CNC(=O)c2ccc3c(c2)nc2n3CCC(C)C2)cc1OC (stereo not drawn) -20.8%
CCCCSCCCNC(=O)C1CCC(CNS(=O)(=O)c2c(C)cc(C)cc2C)CC1 (stereo not drawn) -3.18%
COc1cccc(C(=O)NC2CC(=O)N(c3ccc4c(c3)OCCO4)C2)c1OC (stereo not drawn) -6.9%
Cc1csc2nc(CCNS(=O)(=O)c3ccc(F)cc3)cn12 -8.34%
O=C(CSc1nc2c([nH]c3ccccc32)c(=O)n1-c1ccccc1)N1CCCCCC1 -10.9%
CC1CCc2c(sc(NC(=O)COc3ccccc3C(C)(C)C)c2C#N)C1 (stereo not drawn) -2.71%
Cc1ccc(NC(=O)Cn2c(SCc3ccc(F)cc3)nc3cccnc32)cc1F 9.47%
C[C@@H](Oc1cc(-c2cnn(C3CCNCC3)c2)cnc1N)c1c(Cl)ccc(F)c1Cl -24.6%
O=C(NCCCN1CCN(c2ccccc2F)CC1)c1cc2c(s1)-c1ccccc1OC2 -14.5%
O=C(O)c1ccc(NC(=O)c2cc3ccccc3o2)cc1 24.2%
CCc1ccc(-n2nc(C)c3c(C)cc(=O)n(CC(=O)Nc4ccccc4C(=O)OC)c32)cc1 11.7%
CCCCOc1ccc(C(=O)N/C(=C\c2ccc(Br)cc2)C(=O)NC2CCCCC2)cc1 -8.06%
CSCCC(NS(=O)(=O)c1ccc2c(c1)oc(=O)n2C)C(=O)N1CCN(c2ccc(F)cc2)CC1 (stereo not drawn) -0.0654%
Cc1cccc(-n2ccnc2SCC(=O)Nc2ccc3c(c2)OCO3)c1 -16.2%
O=C(Nc1cccc(F)c1)C1CCN(c2nc3ccccc3[nH]2)CC1 -4.79%
Cc1nc2c3ccccc3nc(NNC(=O)CCC(=O)N3CCN(c4cccc(C(F)(F)F)c4)CC3)n2n1 -26.8%
